{"source": "PubChem BioAssay AID938", "about": "(National Center for Advancing Translational Sciences (NCATS), 2007)", "note": "In all, about 73,000 compounds went through this assay and about 1,800 (2.5%) were called active. The inconclusive results got no clear call from the source; some entries with a clear call stand among them for comparison. Calls follow the shape of the dose curve; as a rule, active = well fitted activation curve with a large enough effect; inconclusive = small, poorly fitted or top-dose-only effect; inactive = no such curve, though single readings can be large or run the other way. Potencies of inconclusive entries are left out as doubtful fits. Potency is read from the fitted curve at half-maximal effect; tags tell the direction and shape of the fitted curve.", "data": [{"experiment": "qHTS Assay for Agonists of the Thyroid Stimulating Hormone Receptor: Activators of Intracellular cAMP Concentrations in Parental HEK 293; also: nearly all actives have a fitted effect of over 55% in size; as to activation: % of control where 0% means no effect", "details": "parental HEK293 CNG cAMP sensor, membrane potential fluorescence; activation: at 57.1 µM (top of the series) unless noted", "outline": "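Parental HEK 293 cells stably expressing a modified CNG channel (no TSHR) report cAMP rise as membrane depolarization. Membrane potential dye with 100 uM RO 20-1724 was loaded for 60 min at room temperature, then compound added for 30 min; fluorescence read at 590 nm.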", "values": [{"smiles": "CCOC(=O)c1sc(=NC(=O)c2cccc(OC)c2)n(C)c1C", "Potency": "inconclusive [activator, partial curve]"}, {"smiles": "Cc1noc(C)c1-c1ccc2ncnc(N3CCN(C)CC3)c2c1", "Potency": "inconclusive [activator, partial curve]"}, {"smiles": "COCC(=O)N1CCC2(CC1)CCN(c1ccncc1)CC2", "Potency": "inconclusive [activator, partial curve]"}, {"smiles": "CN(C)c1ccc(C2=NOC(CN3C(=O)c4ccccc4S3(=O)=O)C2)cc1", "note": "(configuration not stated)", "Potency": "inactive"}, {"smiles": "Cc1cccc(NC(=O)CN2C(=O)COc3ccc(Cl)cc32)c1C", "Potency": "inconclusive [activator, full curve, poor fit]"}, {"smiles": "CN(Cc1ccco1)c1ncnc2ccc(-c3ccoc3)cc12", "Potency": "active: 15.8 µM"}, {"smiles": "CCCCCn1c(CN(C)Cc2ccccc2)nc2c1c(=O)n(C)c(=O)n2C", "Potency": "active: 20 µM"}, {"smiles": "CC(=O)N(c1ccc2oc(=O)sc2c1)S(=O)(=O)c1cccs1", "Potency": "inactive"}, {"smiles": "CC(C)N(Cc1ccccc1)S(=O)(=O)N(C)C", "Potency": "inconclusive [activator, single point]"}, {"smiles": "Cc1ccc(NC(=O)CCC(C(=O)O)N2C(=O)c3ccccc3C2=O)cc1", "note": "(configuration not stated)", "Potency": "inactive"}, {"smiles": "CCc1nc(N2CCN(c3nc(C)cc(C)n3)CC2)c2oc3ccccc3c2n1", "Potency": "inconclusive [activator, single point]"}, {"smiles": "Cc1ccc(-n2nc(-c3cccs3)cc2C(=O)NCC2CCCO2)c(C)c1", "note": "(configuration not stated)", "Potency": "inconclusive [activator, partial curve]"}, {"smiles": "Cc1cc(-c2ccccc2)c(C#N)c(SCC(N)=O)n1", "Potency": "inactive"}, {"smiles": "COc1cc(C2C(=O)N(C3CCCC3)CC(=O)N2Cc2ccco2)ccc1OC(C)C", "note": "(configuration not stated)", "Potency": "inconclusive [activator, single point]"}, {"smiles": "Cc1ccc(NC(=O)N(Cc2ccco2)C(C)c2ccco2)cc1C", "note": "(configuration not stated)", "Potency": "inconclusive [activator, single point]"}, {"smiles": "Cn1nc(CC(=O)NC2CCCCCC2)c2ccccc2c1=O", "Potency": "inconclusive [activator, single point]"}, {"smiles": "O=C(NC1CCCC1)C(c1ccc(O)cc1)N(CC1CCCO1)C(=O)C1COc2ccccc2O1", "note": "(configuration not stated)", "Potency": "inconclusive [activator, partial curve]"}, {"smiles": "COc1ccc(CCNc2oc(COc3ccc(F)cc3)nc2C#N)cc1", "Potency": "inconclusive [activator, partial curve]"}, {"smiles": "COCCOC(=O)C1=C(C)Nc2nc(C)nn2C1c1ccc(F)cc1", "note": "(configuration not stated)", "Potency": "inactive"}, {"smiles": "CCOc1cccc(OCCOCCN(C)Cc2ccccc2)c1", "Potency": "inconclusive [activator, single point]"}, {"smiles": "CCOc1ccccc1NC(=O)CSc1nc2c(c(=O)n1C)SC(C)C2", "note": "(configuration not stated)", "Potency": "active: 31.6 µM"}, {"smiles": "Cc1ccc(S(=O)(=O)n2nc(C)c(Br)c2C)c(C)c1C", "Potency": "inconclusive [activator, single point]"}, {"smiles": "Cc1ccccc1-c1ccc2ncnc(NCCN3CCOCC3)c2c1", "Potency": "inconclusive [activator, partial curve]"}, {"smiles": "O=C(NCCn1ccc2ccccc21)C1CCCCC1", "Potency": "inconclusive [activator, partial curve]"}, {"smiles": "CCOc1ccccc1-n1nnnc1SCc1nc2ccccc2s1", "Potency": "inconclusive [activator, partial curve]"}, {"smiles": "Cc1cc(NC(=O)c2cc3nc(C4CC4)cc(C(F)(F)F)n3n2)no1", "Potency": "inactive"}, {"smiles": "COc1ccc(C2C3=C(OC(C)=O)c4ccccc4C3=Nc3c2c(=O)n(C)c(=O)n3C)cc1", "note": "(configuration not stated)", "Potency": "active: 10 µM"}, {"smiles": "COc1ccc(CCN2C(=O)c3[nH]nc(-c4ccccc4O)c3C2c2ccc(C)cc2)cc1OC", "note": "(configuration not stated)", "Potency": "inconclusive [activator, single point]"}, {"smiles": "CCOC(=O)C1C(=O)NC(N2CCOCC2)=NC1c1ccco1", "note": "(configuration not stated)", "Potency": "inactive"}, {"smiles": "COc1c(Br)cc2c(C)c(C(=O)N3CCOCC3)oc2c1Br", "Potency": "inconclusive [activator, single point]"}, {"smiles": "CCN(CC)CCCC(C)Nc1nc(C)cc(Nc2ccc3nc(C)cc(N)c3c2)n1", "note": "(configuration not stated)", "Potency": "inactive"}, {"smiles": "CCOC(=O)c1[nH]c(CSc2nnnn2-c2ccccc2C)c(C(=O)OCC)c1C", "Potency": "inconclusive [activator, single point]"}, {"smiles": "CC(=O)c1cccc(NC(=O)c2cc3nc(C)cc(C)n3n2)c1", "Potency": "inconclusive [activator, single point]"}, {"smiles": "Cc1nn2c(=O)cc(CSc3nc4ccccc4[nH]3)nc2s1", "Potency": "inactive"}, {"smiles": "CC(OC(=O)c1cc2sccc2n1C)C(=O)NCc1ccc2c(c1)OCO2", "note": "(configuration not stated)", "Potency": "inconclusive [activator, partial curve]"}, {"smiles": "CCn1c2ccccc2c2nnc(SCc3ccc(C(=O)OC)o3)nc21", "Potency": "inconclusive [activator, single point]"}, {"smiles": "CCOC(=O)C1=C(N)OC2=C(C(=O)CC(C)(C)C2)C1c1ccco1", "note": "(configuration not stated)", "Potency": "active: 25.1 µM"}, {"smiles": "CCc1nc(SCC(=O)Nc2cccc(C(F)(F)F)c2)c2c(=O)n(C)c(=O)n(C)c2n1", "Potency": "inactive"}, {"smiles": "CCSc1nnc(NC(=O)CSc2ncccn2)s1", "Potency": "inconclusive [activator, single point]"}, {"smiles": "CCn1c2ccccc2c2cc(NC(=O)N3CCOCC3)ccc21", "Potency": "inactive"}, {"smiles": "COC(=O)C1=C(C)Nc2nc(-c3ccccc3)nn2C1c1ccc(C)o1", "note": "(configuration not stated)", "Potency": "inconclusive [activator, partial curve]"}, {"smiles": "O=C1c2ccccc2-c2ccc(N=[N+]([O-])c3ccc4c(c3)C(=O)c3ccccc3-4)cc21", "activation": "inactive: -5.67% [at 11.4 µM]"}, {"smiles": "CC1(C)CC(=O)C2=C(C1)OC(N)=C(C#N)C2C#Cc1ccccc1", "note": "(configuration not stated)", "Potency": "inactive"}, {"smiles": "O=C(O)Cc1cccc2c(=O)cc(-c3ccccc3)oc12", "activation": "inactive: 3.41% [at 11.4 µM]"}, {"smiles": "Cc1cc(Nc2ccc(C(C)C)cc2)n2ncnc2n1", "Potency": "inactive"}, {"smiles": "CCC(c1nnnn1C1CCCCC1)N(Cc1ccco1)Cc1cc2ccc(OC)cc2[nH]c1=O", "note": "(configuration not stated)", "Potency": "inconclusive [activator, partial curve]"}, {"smiles": "C#C[C@@]1(O)CC[C@@H]2[C@@H]3CCC4=CC(=O)CC[C@@H]4[C@H]3CC[C@]21C", "Potency": "inconclusive [activator, single point]"}]}]}
